According to paper PMC6919601, “Identification of Plasmodium dipeptidyl aminopeptidase allosteric inhibitors by high throughput screening” (PLoS ONE, 2019):
About 230 (0.21%) of roughly 110,000 compounds showed an effect of 50% or more. Some of the results follow.

These molecules were tested against DPAP1 (Plasmodium falciparum, UniProt Q8IIJ9) (assay: primary screen, percent inhibition; read by cleavage of a fluorogenic dipeptide substrate; higher = more effect of the substance).
Set-up: species or system P. falciparum D10 trophozoite lysates; single well
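Note: 30 min substrate incubation versus DMSO and 10 µM JCP410 controls.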

Sequence of DPAP1 (Q8IIJ9 whole entry, looked up): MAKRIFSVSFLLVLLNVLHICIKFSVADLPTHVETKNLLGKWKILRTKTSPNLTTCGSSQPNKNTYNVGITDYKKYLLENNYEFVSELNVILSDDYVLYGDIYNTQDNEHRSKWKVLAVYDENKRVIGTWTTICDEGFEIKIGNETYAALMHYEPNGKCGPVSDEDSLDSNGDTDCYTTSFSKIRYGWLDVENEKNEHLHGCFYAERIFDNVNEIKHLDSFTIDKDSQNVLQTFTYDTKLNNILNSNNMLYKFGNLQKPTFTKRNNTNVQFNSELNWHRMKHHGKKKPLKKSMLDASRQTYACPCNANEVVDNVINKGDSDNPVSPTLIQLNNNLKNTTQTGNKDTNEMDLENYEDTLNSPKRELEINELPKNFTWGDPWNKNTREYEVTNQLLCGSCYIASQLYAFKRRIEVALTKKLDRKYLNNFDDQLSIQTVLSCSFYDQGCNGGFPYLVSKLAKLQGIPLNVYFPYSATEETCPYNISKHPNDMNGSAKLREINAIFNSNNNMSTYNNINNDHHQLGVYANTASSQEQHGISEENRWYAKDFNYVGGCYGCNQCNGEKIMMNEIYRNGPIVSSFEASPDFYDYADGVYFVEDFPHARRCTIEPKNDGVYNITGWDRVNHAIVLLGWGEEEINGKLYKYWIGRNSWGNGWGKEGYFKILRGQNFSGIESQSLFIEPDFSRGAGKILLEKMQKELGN

Structure (SMILES) | % Inhibition @ 10 uM
CC1CN(Cc2nc3c(c(=O)[nH]c(=O)n3C)n2CCc2ccccc2)CC(C)O1 (stereo not shown) | -2.92%
COc1cccc(-n2nnc3c(=O)n(CC(=O)N4CCCC4)cnc32)c1 | -2.16%
COc1cc(C(CC(=O)NCc2ccc(Cl)cc2)N2Cc3ccccc3C2=O)cc(OC)c1OC (stereo not shown) | -0.943%
O=C(COc1ccccc1)NCc1ccccc1 | -0.274%
OCCOCCNc1ncnc2c1c(-c1ccccc1)cn2-c1ccccc1 | 4.77%
CCC/N=c1\c(NC(=O)CC(C)C)c(O)oc2ccccc12 | -2.23%
COC(=O)/C(=C/c1c[nH]c2ccccc12)NC(C)=O | 5.36%
CC(C)C[C@H](NC(=O)NCc1ccc(Cl)cc1Cl)C(=O)NCC#N | -4.72%
Cc1cc(C(C)(C)C)n2ncnc2n1 | 2.03%
O=C(NCc1ccccc1Cl)C1CCN(c2nnc(-n3cccc3)s2)CC1 | 0.0882%
COc1ccc2c(c1)OCC/C2=N\OC(=O)c1cccc2ccccc12 | -3.74%
O=C(NCCN1CCOCC1)C(=O)NCC1COc2ccccc2O1 (stereo not shown) | -0.834%
CC(C)c1ccccc1OCC(=O)Nc1ccc(C#N)cc1 | 1.93%
CCn1c(C)c2c(C)nn3cc(C)cc3c2c1C | 0.558%
CC(=O)OCc1csc(N[C@@H](CC(C)C)C(=O)NCC#N)n1 | -3.04%
O=C(c1ccccc1C(=O)N1CCOCC1)N1CCOCC1 | -0.0369%
CN(Cc1ccco1)Cc1nc2ccccc2c(=O)n1-c1ccc(F)cc1 | 1.73%
CCCc1[nH]nc2c1C(c1ccc(OC)cc1)C(C#N)=C(N)O2 (stereo not shown) | -2.89%
CCc1ccc(C2C(C(C)=O)=C(O)C(=O)N2CCc2c[nH]c3ccccc23)cc1 (stereo not shown) | 5.03%
Cc1nc(S)nc(O)c1Cc1ccc(C(=O)O)o1 | -7.04%
O=C(c1ccc(Cl)c([N+](=O)[O-])c1)N1CCCCCC1 | 1.55%
Cc1oc2ccc(O)c(CN3CCN(Cc4ccccc4)CC3)c2c1C(=O)NC1CCCC1 | -8.69%
COC(=O)c1sccc1NC(=S)N(C)CCC#N | 0.121%
O=C(COc1ccc(S(=O)(=O)NCc2ccccc2)cc1)NC1CCCCC1 | -2.65%
N#CC1=C(N)Oc2c(cc(Cl)c3ccccc23)C1c1ccccc1 (stereo not shown) | 0.536%

Structure (SMILES) | % Inhibition @ 10 uM
O=C(CSc1nc2c(c(C(F)(F)F)n1)CCc1ccccc1-2)N1CCOCC1 | 0.0289%
O=C(CN1C(=O)S/C(=C\c2cc3c(cc2Br)OCO3)C1=O)c1ccccc1 | 0.161%
CCCn1c(=O)c2sccc2n2c(CCCC(=O)NCCc3cc(OC)ccc3OC)nnc12 | 2.33%
CC1(C)CC(C(CC(=O)O)c2ccccc2)CCO1 (stereo not shown) | -4.8%
CCCOc1ccc(C2C(C#N)=C(N)Oc3[nH]nc(CCC)c32)cc1OCC (stereo not shown) | 2.38%
N#CC1=C(N)Oc2[nH]nc(-c3cccs3)c2C12C(=O)Nc1ccccc12 (stereo not shown) | 3.05%
CCn1c(=O)c2sccc2n2c(CCC(=O)NCCc3ccc(S(N)(=O)=O)cc3)nnc12 | -0.326%
Cc1ncc(CO)c2cc(-c3nnc(NCc4ccc(F)cc4)s3)c(=O)oc12 | 11.4%
COc1ccccc1/C=C/CN1CCC(Cc2ccccc2)CC1 | -5.94%
Cn1c2ccccc2c2cnn(CC(=O)NCCc3ccc(S(N)(=O)=O)cc3)c(=O)c21 | -7.36%
COc1cc(C2CC(=O)NC3=C2C(=O)CC(c2cccs2)C3)c(OC)cc1Br (stereo not shown) | 1.97%
CN1CCC(NCc2ccc(Cl)cc2)CC1 | 7.67%
CCN1N=C2/C(=C/c3ccc(C)cc3)CNCC2C1c1ccc(C)cc1 (stereo not shown) | 8.63%
O=C(c1cnn(-c2ccccc2)c1-n1cccc1)N1CCCCC1 | -1.58%
Cc1ccc(C(=O)N/C(=C/c2ccccc2F)C(=O)NCc2ccccc2)cc1 | 2.01%
Cc1cc(/C=C(/C#N)C(=O)Nc2ccc(Cl)cc2)c(C)n1-c1ccc2c(c1)OCO2 | 1%
O=C(NCCc1ccccc1)Nc1cnc2ccccc2c1O | -2.84%
CCCn1c(=O)c2sccc2n2c(CCCC(=O)N(C)Cc3ccco3)nnc12 | 2.45%
OC(COCC1COc2ccccc2O1)CN1CCCCC1 (stereo not shown) | 2.73%
O=C1/C(=C\c2cccnc2)CN(Cc2ccccc2)C/C1=C\c1cccnc1 | 0.287%
CC(C(=O)Nc1sc2c(c1C(=O)NCC1CCCO1)CCCC2)N1C(=O)c2ccccc2C1=O (stereo not shown) | 1.61%
Cc1c(CNC(=O)c2cc(-c3ccc4c(c3)OCO4)nc3ccccc23)cnn1C | 2.32%
COc1ccc(Nc2nc3c(s2)CCCC3)cc1 | 3.25%
O=C(CC(NCCN1CCOCC1)C(=O)O)Nc1cccc(Cl)c1Cl (stereo not shown) | 1.73%
c1ccc2c(c1)OCC(c1nn3cnnc3s1)O2 (stereo not shown) | 3.88%

Structure (SMILES) | % Inhibition @ 10 uM
O=C1C2CC=CCC2C(=O)N1c1cccc(Cl)c1Cl (stereo not shown) | 0.147%
CCOC(=O)c1cc(-c2ccc(F)cc2)n(CC(=O)Nc2nccs2)c1C | -7.35%
COc1ccc(-n2c(C)cc(/C=C3/C(=N)N4C=CSC4=NC3=O)c2C)cc1Cl | -2.98%
O=C(Nc1ccc(Br)cc1F)C1CC(=O)N(c2ccc(Cl)cc2)C1 (stereo not shown) | 4.57%
Cc1cc(C)c2oc(C(=O)N(Cc3ccccc3)Cc3ccco3)cc(=O)c2c1 | 5.06%
COc1ccc(-n2c3c(c(=O)[nH]c2=O)C(C(F)(F)F)(C(F)(F)F)NC(c2ccco2)=N3)cc1 | -3.62%
COc1ccc(-c2c(C)c3c(n2C)C(c2ccccc2)Oc2ccccc2-3)cc1 (stereo not shown) | -1.5%
COc1ccc(N(CC(=O)Nc2cccc(Cl)c2)S(C)(=O)=O)cc1OC | 3.66%
CCOc1cccc2c1OC(c1ccc(C(=O)OC)cc1)N1N=C(c3cccnc3)CC21 (stereo not shown) | -1.46%
COc1ccc(N2C(N)=C(C#N)C(c3cc(OC)c(OC)c(OC)c3)C3=C2CCCC3=O)cc1 (stereo not shown) | -4.76%
CC(=O)C1=C(Nc2ccccc2)SC(c2ccccc2)CC1=O (stereo not shown) | 3.99%
COCc1cc(C)nc(SCC(=O)Nc2ccc(C(C)=O)cc2)c1C#N | -3.46%
CC(C)/C=C1\CC/C(=C\c2ccncc2)C1=O | 1.07%
COc1ccc(-c2noc(CN(C(=O)NC3CCCCC3)C3CCCCC3)n2)cc1OC | 6.34%
COc1cccc(CNC2CCCCC2)c1O | -0.386%
CCOc1ccc(Cn2nnc(C(=O)NCc3ccc(Cl)cc3Cl)c2N)cc1 | 3.49%
CC(=O)c1ccc(N2C(=O)C3CCC(C)CC3C2=O)cc1 (stereo not shown) | -6.07%
CCOC(=O)c1c(C)oc2c1c1c(c3ccccc32)OCN(CCCC(=O)O)C1 | 8.12%
COc1cc(S(=O)(=O)N2CCNCC2)ccc1-n1cnnn1 | -4.19%
N#Cc1c(N/C=C2/C(=O)NC(=O)N(c3cccc(Cl)c3)C2=O)sc2c1CCC2 | -2.54%
Cc1cccc(C)c1OCC(=O)Nc1ccc(S(=O)(=O)N2CCCC2)cc1 | -5.14%
O=C(NCCCN1CCOCC1)c1ccc2nc(N3CCCCC3)sc2c1 | -9.91%
N#CC1=C(N)OC2=C(C(=O)CCC2)C1c1ccc(C(F)(F)F)cc1 (stereo not shown) | -8.11%
CC(C)C[C@H](NC(=O)N1CCN(C(c2ccccc2)c2ccccc2)CC1)C(=O)NCC#N | 1.35%
CN(C)CCCN(C(=O)CCS(=O)(=O)c1ccccc1)c1nc2c(F)cccc2s1 | 2.72%

Structure (SMILES) | % Inhibition @ 10 uM
CCOC(=O)C1CCN(Cc2ccc(OC)cc2)CC1 | 0.317%
CC1CN(Cc2cccnc2)CC(C)O1 (stereo not shown) | 5.73%
CCC1CCC(N(CCO)CCO)CC1 (stereo not shown) | -0.0648%
O=C(Cc1ccccc1)Nc1nccs1 | -0.769%
Cc1ccccc1OCCn1cnc2ccccc21 | 5.3%
Clc1ccc(OCCCCN2CCCC2)c(Cl)c1 | -5.16%
Cc1cccc2ccc(C3C(=O)c4cccc5cccc(c45)C3=O)nc12 | -1.47%
Cc1ccccc1Cn1cc(NC(=O)c2onc(C)c2Cl)cn1 | 1.62%
O=[N+]([O-])c1cc2c(cc1CN1CCSCC1)OCO2 | -1.98%
COc1c(O)cnn(-c2ccccc2)c1=O | -5.32%
Cc1ccc(C(=O)N2CCN(c3ccc(NC(=O)c4cccs4)cc3)CC2)cc1 | -6.39%
CCOC(=O)/C(=C\N(C)C)C(=O)C1CCN(C(=O)OC(C)(C)C)CC1 | -1.08%
CCC(C)NC(=O)CSc1nc(-c2ccccc2)cc(C(F)(F)F)n1 (stereo not shown) | -7.35%
CN(C)S(=O)(=O)c1ccc(C(=O)NCc2nnc(S)n2-c2ccccc2Cl)cc1 | 3.34%
O=C(NCCCN1CCOCC1)c1ccc(CS(=O)c2ccccc2)o1 (stereo not shown) | -1.28%
O=C1c2ccccc2C(=O)N1CCCO | -0.256%
O=C1c2cccc3cccc(c23)C(=O)N1CCN1CCN(S(=O)(=O)c2ccccc2)CC1 | -1.59%
Cc1ccc(OCc2ccc(C(=O)O)cc2)cc1C | 5.3%
C=CCn1c(SCC(=O)c2ccc(F)cc2)nc2sc(CC)cc2c1=O | -7.58%
COc1ccc(-c2cc(C(F)(F)F)nc(SCC(=O)NCc3cccnc3)n2)cc1 | -2.31%
O=C(Nc1nc2ccccc2s1)C1CCCN(c2ncnc3onc(-c4ccc(F)cc4)c23)C1 (stereo not shown) | -2.16%
CC(Cc1ccccc1)NC1=NS(=O)(=O)c2ccccc21 (stereo not shown) | 0.634%
CCOc1ccccc1NC(=O)c1ccccc1OCC | 0.316%
Cn1c(C(=O)NCc2ccccn2)cc2sc(Cl)cc21 | -8.58%
COc1ccc(/C=C2/SC(N3CCC(C)CC3)=NC2=O)cc1 | 4.44%
